The whole screen tested about 220,000 compounds, of which about 5,700 (2.6%) were called active. The inconclusive results got no clear call from the source; some entries with a clear call stand among them for comparison. The call rests on the fitted dose curve; in most records, active means well fitted inhibition curve with a large enough effect; inconclusive means small, poorly fitted or top-dose-only effect; inactive means no such curve, though single readings can be large or run the other way. A potency beside an inconclusive call is a rough fit, not a confirmed value.
These molecules were tested against Lysine-specific demethylase 5B (Homo sapiens) (UniProt Q9UGL1) (assay: Primary screen for KDM5B Histone Demethylases FDH-coupled qHTS). Conditions: FDH-coupled NADH fluorescence (FDH is formaldehyde dehydrogenase); activity change, negative = inhibition: at 57.7 µM (top of the series) unless noted.
Chain of UniProt Q9UGL1 (Q9UGL1 whole entry, looked up): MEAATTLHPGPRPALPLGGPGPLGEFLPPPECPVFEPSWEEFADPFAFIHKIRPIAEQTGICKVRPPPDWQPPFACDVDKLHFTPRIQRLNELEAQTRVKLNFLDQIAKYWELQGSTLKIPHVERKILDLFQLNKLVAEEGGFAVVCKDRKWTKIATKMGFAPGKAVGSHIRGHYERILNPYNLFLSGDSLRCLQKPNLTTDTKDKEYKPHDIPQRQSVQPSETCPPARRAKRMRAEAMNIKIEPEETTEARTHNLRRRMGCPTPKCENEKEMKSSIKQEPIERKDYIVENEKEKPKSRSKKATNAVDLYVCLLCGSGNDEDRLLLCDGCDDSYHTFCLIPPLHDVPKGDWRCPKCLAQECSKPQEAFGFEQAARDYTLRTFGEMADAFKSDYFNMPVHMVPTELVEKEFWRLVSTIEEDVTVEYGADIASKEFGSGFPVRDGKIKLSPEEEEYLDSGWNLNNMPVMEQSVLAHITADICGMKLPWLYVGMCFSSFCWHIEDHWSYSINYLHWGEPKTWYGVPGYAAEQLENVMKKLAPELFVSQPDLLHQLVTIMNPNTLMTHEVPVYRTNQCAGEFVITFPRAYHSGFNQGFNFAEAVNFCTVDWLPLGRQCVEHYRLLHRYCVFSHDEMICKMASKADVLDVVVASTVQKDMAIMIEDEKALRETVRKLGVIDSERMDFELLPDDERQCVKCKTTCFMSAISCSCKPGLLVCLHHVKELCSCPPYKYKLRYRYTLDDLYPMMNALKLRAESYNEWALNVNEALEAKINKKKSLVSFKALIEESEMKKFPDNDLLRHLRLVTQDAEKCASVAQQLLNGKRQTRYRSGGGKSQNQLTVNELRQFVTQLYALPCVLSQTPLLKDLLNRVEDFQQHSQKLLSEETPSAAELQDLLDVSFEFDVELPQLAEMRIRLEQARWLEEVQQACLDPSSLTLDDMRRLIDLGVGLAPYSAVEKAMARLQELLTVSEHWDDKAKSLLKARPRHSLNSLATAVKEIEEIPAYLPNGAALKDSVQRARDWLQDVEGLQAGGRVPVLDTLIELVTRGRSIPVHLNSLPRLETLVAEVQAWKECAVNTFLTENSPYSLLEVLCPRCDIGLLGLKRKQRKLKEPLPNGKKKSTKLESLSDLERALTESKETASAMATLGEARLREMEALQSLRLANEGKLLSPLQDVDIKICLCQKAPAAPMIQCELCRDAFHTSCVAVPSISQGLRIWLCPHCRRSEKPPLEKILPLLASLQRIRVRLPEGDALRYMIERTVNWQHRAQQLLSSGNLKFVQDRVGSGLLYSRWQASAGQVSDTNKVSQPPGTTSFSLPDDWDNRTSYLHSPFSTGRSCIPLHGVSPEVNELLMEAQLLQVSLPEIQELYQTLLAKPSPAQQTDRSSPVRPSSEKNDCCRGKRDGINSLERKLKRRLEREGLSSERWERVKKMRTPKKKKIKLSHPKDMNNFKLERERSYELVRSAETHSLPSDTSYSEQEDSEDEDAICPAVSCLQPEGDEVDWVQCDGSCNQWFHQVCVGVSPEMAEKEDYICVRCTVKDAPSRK
Method in brief: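 Here, H3K4me3 peptide (12.5 µM in substrate mix) is demethylated by KDM5BΔAP, 200 nM final, after 10 min compound exposure. Formaldehyde product is coupled through FDH (0.25 U/mL in mix) to NADH fluorescence; 30-min ΔRFU feeds dose-response curves.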
Further: nearly all actives have a fitted effect of over 70% in size.
Potency means the concentration at half of the fitted maximal effect; tags describe the fitted curve by direction and shape.
Wherever activity change, negative = inhibition is given: 0% is about no effect.

Row | Compound | Potency | activity change, negative = inhibition
1 | Cc1ccc(CCNC(=O)c2sc3ncccc3c2-n2c(C)ccc2C)cc1 | inconclusive: 22.4 µM [inhibitor, partial curve, poor fit] | –
2 | Nc1nccnc1C(=O)NCc1ccnc(OCc2ccccc2)c1 | inconclusive: 22.4 µM [inhibitor, partial curve, poor fit] | –
3 | O=C1c2c(nc(COc3ccccc3)n2Cc2ccccc2)NCCN1Cc1cccc(Cl)c1 | inconclusive: 31.6 µM [inhibitor, single point] | –
4 | COc1ccc2cc(C(=O)N3CCC(Cc4ccc(C(=O)NC5CC5)cc4)CC3)[nH]c2c1 | active: 35.5 µM | –
5 | CC(Sc1nnc(-c2nn(Cc3ccccc3)c(=O)c3ccccc23)o1)C(=O)N1CCCC1 (stereo not drawn) | – | inactive: 17.3%
6 | Clc1ccc(C2C=C(c3ccccc3)Nc3ncnn32)c(Cl)c1 (stereo not drawn) | inconclusive: 28.2 µM [inhibitor, partial curve, poor fit] | –
7 | c1csc(-c2nc3nccc(-c4ccsc4)n3n2)c1 | inconclusive: 7.94 µM [inhibitor, full curve, poor fit] | –
8 | COc1ccc(C(=O)OCc2ccc(C#N)cc2)c(O)c1 | – | inactive: 2.37%
9 | Cc1cccc(CN2CCC(CNC(=O)Nc3cn(C)c(=O)c4ccccc34)CC2)c1 | inconclusive: 12.6 µM [inhibitor, partial curve, poor fit] | –
10 | CC(C)CCNC(=O)c1ccc(N2CC3CC(C2)[C@H]2CCCC(=O)N2C3)nc1 (stereo partly drawn) | inconclusive: 17.8 µM [inhibitor, partial curve, poor fit] | –
11 | Cc1cc(N2CCN(C)CC2)nc2ccc(NC(=O)Nc3ccccc3)cc12 | inconclusive: 31.6 µM [inhibitor, partial curve, poor fit] | –
12 | Cc1cccc(C(=O)N2C(C(=O)NCC(C)C)COC23CCN(C(=O)C(C)(C)C)CC3)c1 (stereo not drawn) | – | inactive: 1.21%
13 | Cc1cc(S(=O)(=O)N(C)CC2CCOCC2)ccc1Cl | – | inactive: 24.1%
14 | O=C(CCCc1nc(-c2ccco2)no1)Nc1ccccc1[N+](=O)[O-] | inconclusive: 12.6 µM [inhibitor, partial curve, poor fit] | –
15 | Cc1ccc(-c2cn3ccccc3n2)cc1NS(=O)(=O)c1ccccc1 | inconclusive: 25.1 µM [inhibitor, single point] | –
16 | COc1ccc(C2=NN(C(C)=O)C(c3cn(-c4ccccc4)nc3-c3cccs3)C2)cc1 (stereo not drawn) | inconclusive: 3.16 µM [inhibitor, full curve, poor fit] | –
17 | CCc1cc(=O)oc2c(C)c(OCC(=O)c3ccc(OC)cc3)ccc12 | – | inactive: 18.8%
18 | CCn1c(-n2nc(C)cc2C)nc2c1c(=O)n(CCN1CCCCC1)c(=O)n2C | – | inactive: -5.31%
19 | COc1ccc(CN2C(=O)[C@@H]3C[C@@H](CN3C3CCC3)Oc3ccccc32)cc1 | inconclusive: 28.2 µM [inhibitor, partial curve] | –
20 | O=C(O)/C=C/c1c(Cl)cccc1Cl | – | inactive: -7.05%
21 | C/C(=C(/C#N)c1nc2ccccc2[nH]1)c1ccc(C)cc1 | inconclusive: 39.8 µM [inhibitor, single point] | –
22 | COc1cc(C(=O)ON=C2C3CC4CC(C3)CC2C4)cc(OC)c1OC | inconclusive: 25.1 µM [inhibitor, partial curve, poor fit] | –
23 | N#Cc1cccc(NC(=O)CCc2ncc(-c3ccc(Cl)cc3)o2)c1 | inconclusive: 28.2 µM [inhibitor, partial curve, poor fit] | –

Row | Compound | Potency | activity change, negative = inhibition
24 | CC(=O)NCC(=O)N1CCCn2cc(-c3ccc4c(c3)OCO4)nc21 | inconclusive: 22.4 µM [inhibitor, partial curve, poor fit] | –
25 | O=C(Nc1ccc2oc(-c3ccc4ccccc4c3)nc2c1)c1cc(Br)ccc1Cl | inconclusive: 22.4 µM [inhibitor, partial curve, poor fit] | –
26 | O=C(C1=NO[C@@H]2CN(Cc3ccsc3)C[C@H]12)N1CCOCC1 | inconclusive: 56.2 µM [inhibitor, single point] | –
27 | Cc1oc(-c2cccs2)nc1CC(=O)N1CCOCC1 | inconclusive: 28.2 µM [inhibitor, partial curve, poor fit] | –
28 | O=C(/C=C/c1ccco1)Nc1ccc2oc(-c3ccccc3F)nc2c1 | inconclusive: 39.8 µM [inhibitor, single point] | –
29 | CCNC(=O)c1ccccc1OCc1ccc(Cl)cc1 | – | inactive: 19.7%
30 | CCCCN1C(C(C)=O)=C(OC(=O)c2ccccc2OC)c2ccccc2S1(=O)=O | – | inactive: 1.88%
31 | COc1ccccc1N1CCN([C@@H]2[C@H](O)[C@H](CO)O[C@@H]2CNC(C)C)CC1 | inconclusive: 17.8 µM [inhibitor, partial curve] | –
32 | COc1ccc(CCc2nc3nccc(-c4ccccn4)n3n2)cc1OC | – | inactive: -11.6%
33 | COC(=O)c1cccc(NC(=O)CCNc2c(C)nc3cnccn23)c1 | inconclusive: 25.1 µM [inhibitor, single point] | –
34 | Cn1cc2c3c(cccc31)CN(C(=O)Cc1ccc(Cl)cc1)CC2 | inconclusive: 25.1 µM [inhibitor, single point] | –
35 | CCn1c(N2CCC(C(=O)Nc3ccc(C(C)C)cc3)CC2)cc(=O)n(C)c1=O | – | inactive: -16.1%
36 | COc1ccc(NS(=O)(=O)c2ccc3[nH]c4c(c3c2)CCCC4)c(OC)c1 | inconclusive: 35.5 µM [inhibitor, single point] | –
37 | CC(=O)N1CCNc2cc(-c3ccc(Oc4ccccc4)cc3)ncc2C1 | – | inactive: -21.5% [at 86.2 µM]
38 | Cc1ccc(NC(=O)Cn2cnc3c2c(=O)n(C)c(=O)n3C)c(Cl)c1 | – | inactive: 8.16%
39 | Oc1c(Cl)cc(Cl)cc1/C=N/NC(=S)NC1CC2C=CC1C2 (stereo not drawn) | inconclusive: 3.98 µM [inhibitor, full curve, poor fit] | –
40 | COc1ccc(Br)cc1/C=C/C(=O)OC1CCCCC1=O (stereo not drawn) | – | inactive: -16.2%
41 | CN1CC2(CCN(Cc3cn(C)c4ccccc34)CC2)CC1C(=O)N1CCOCC1 (stereo not drawn) | inconclusive: 15.8 µM [inhibitor, partial curve] | –
42 | CC(C)(CC(=O)O)CC(=O)N1Cc2[nH]cnc2C[C@H]1c1nc(Cc2ccccc2)no1 | inconclusive: 31.6 µM [inhibitor, single point] | –
43 | CS(=O)(=O)Cc1ccc(C(=O)Nc2ccc(F)cc2F)cc1 | – | inactive: 16.3%
44 | COc1ccc(NC(=O)C2CCN(S(=O)(=O)c3c(C)noc3/C=C/c3ccco3)CC2)cc1 | inconclusive: 1.41 µM [inhibitor, full curve, poor fit] | –
45 | O=C(c1c(F)cccc1F)N(Cc1ccc2cc[nH]c2c1)C1CC1 | – | inactive: -19.6%
46 | CCN(C(=O)CN(C)S(=O)(=O)c1ccc2c(c1)n(C)c(=O)c(=O)n2C)c1cccc(C)c1 | inconclusive: 25.1 µM [inhibitor, partial curve, poor fit] | –

Row | Compound | Potency | activity change, negative = inhibition
47 | COc1cccc(C(=O)N[C@@H]2CN(C)C[C@H]2CN(C)C)c1OC | inconclusive: 20 µM [inhibitor, partial curve, poor fit] | –
48 | CCc1ccc(-c2cc(C(F)(F)F)on2)cc1S(=O)(=O)NCc1ccccc1 | – | inactive: -22.7%
49 | COc1ccc(-c2nnc3ccc(NCC(C)C)nn23)nc1 | active: 35.5 µM | –
50 | CCCc1noc(CCC(=O)NC(C)c2ccc(C)o2)n1 (stereo not drawn) | – | inactive: -11%
51 | O=C(NCCc1ccccc1)C(=O)NCC(c1cccnc1)N1CCN(c2ccc(F)cc2)CC1 (stereo not drawn) | inconclusive: 14.1 µM [inhibitor, partial curve, poor fit] | –
52 | COc1ccccc1-c1cc(C(F)(F)F)nc(S(=O)(=O)CCCC(=O)Nc2cc(Br)ccc2O)n1 | inconclusive: 35.5 µM [inhibitor, single point] | –
53 | CCCn1cnc2c1CN(S(=O)(=O)c1cccc3c(N(C)C)cccc13)[C@H](C(=O)OC)C2 | inconclusive: 31.6 µM [inhibitor, partial curve, poor fit] | –
54 | COc1cccc(C(=O)N2CCC3(C2)NC(=O)N(Cc2ccc(Cl)cc2)C3=O)c1 (stereo not drawn) | – | inactive: -12.8%
55 | O=C(NCc1ccccn1)c1ccccc1Nc1ccccc1 | – | inactive: 10.5%
56 | COc1cc(/C=N/NC(=O)c2cc3ccccc3[nH]2)ccc1O | inconclusive: 35.5 µM [inhibitor, partial curve, poor fit] | –
57 | O=C(NC1CCN(c2cc(-c3cccs3)[nH]n2)C1)c1cc(Cl)ccc1F (stereo not drawn) | inconclusive: 10 µM [inhibitor, partial curve] | –
58 | CC(=O)c1ccc(NC(=O)Cn2c3ncccc3c(=O)n2-c2ccc(C)cc2)cc1 | inconclusive: 35.5 µM [inhibitor, partial curve, poor fit] | –
59 | CC(C)CCN1CCC2(CC1)OC(=O)N(Cc1ccc(O)cc1)C2(C)c1ccccc1 (stereo not drawn) | – | inactive: 12.6% [at 86.2 µM]
60 | C=CCN(CC=C)C(=O)c1cc(-c2ccc(OCC)cc2)nc2ccccc12 | inconclusive: 25.1 µM [inhibitor, partial curve, poor fit] | –
61 | CCCc1noc(-c2ccn3c(CNC(=O)c4cc5ccccc5[nH]4)nnc3c2)n1 | – | inactive: -732%
62 | Cc1cc(N2CCC3(CC2)C(C(=O)O)CC(=O)N3C)ccn1 (stereo not drawn) | – | inactive: -25.6%
63 | Cc1cc(C(=O)O)sc1-c1ccc(C(C)(C)C)cc1 | inconclusive: 28.2 µM [inhibitor, partial curve, poor fit] | –
64 | Cc1oc(-c2cccs2)nc1CC(=O)NCC1CCCO1 (stereo not drawn) | inconclusive: 25.1 µM [inhibitor, partial curve, poor fit] | –
65 | Cc1ccccc1NC(=O)CSC1=C(C#N)C(c2ccccc2C)C2=C(CCCC2=O)N1 (stereo not drawn) | inconclusive: 22.4 µM [inhibitor, partial curve, poor fit] | –
66 | Cc1cc(N2CCCN(c3nccc(-c4c(C)nn(C)c4C)n3)CC2)ccn1 | active: 28.2 µM | –
67 | Cc1c(Cl)cccc1S(=O)(=O)N(Cc1cccnc1)C1CC1 | – | inactive: 1.7%
68 | COc1cc(NC(=O)CCc2c(C)n(C)c3cc(-c4ccccc4C)nn3c2=O)cc(OC)c1OC | inconclusive: 35.5 µM [inhibitor, partial curve, poor fit] | –

Source: PubChem BioAssay AID1347165 (National Center for Advancing Translational Sciences (NCATS), 2019)
